Results: PubChem BioAssay AID686978 (National Center for Advancing Translational Sciences (NCATS), 2013)
The whole screen tested about 420,000 compounds, of which about 64,000 (15%) were called active. Inconclusive results, whose numbers are uncertain, are shown with a selection of clear calls. The call rests on the fitted dose curve; in most records, active means well fitted inhibition curve with a large enough effect; inconclusive means small, poorly fitted or top-dose-only effect; inactive means flat fitted curve, though single readings scatter. No potency is given beside an inconclusive call; the fits are too rough.

Experiment: qHTS for Inhibitors of human tyrosyl-DNA phosphodiesterase 1 (TDP1): qHTS in cells in absence of CPT; further: nearly all actives have a fitted effect of over 55% in size
Conditions: DT40 Tdp1-/- hTDP1 cells, no CPT, ATP luminescence, 48 h; activity change, negative = growth inhibition: at 46.2 µM (top of the series) unless noted
How it was run: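 A cellular qHTS used chicken DT40 cells lacking endogenous Tdp1 but carrying stably transfected human TDP1. Compounds were applied without camptothecin, and cell growth kinetics were judged by ATP-dependent luminescence after ≥48 hr.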
On the % scale 0 is the no-effect control and ±100 the full control effect; potency means the concentration at half of the fitted maximal effect; tags describe the fitted curve by direction and shape.

SMILES | Potency | activity change, negative = growth inhibition
COc1cc(OC)c(C(=O)Nc2cc(S(=O)(=O)N3CCOCC3)ccc2N2CCN(C)CC2)cc1OC | inactive | –
Cc1nc2c(N)nn(C)c2nc1C | inactive | –
CC(=O)c1ccc(NC(=O)CCNC(=O)c2ccc(Cl)cc2)cc1 | inactive | –
Fc1cccc(Cc2c(-c3ccco3)nc3c4ccccc4ccn23)c1 | active: 6.51 µM | –
C[C@H](O)[C@@H]1C(=O)N2CCc3c([nH]c4ccccc34)[C@@H]2C[C@@H]1N(C)C(=O)NC1CCCCC1 | – | inconclusive: -19.8% [inhibitor]
CN(C)S(=O)(=O)c1ccc(C(=O)NCCSc2c(-c3ccc(Cl)cc3)[nH]c3ccccc23)cc1 | active: 5.17 µM | –
COc1ccc2nc(-c3ccccc3)nc(SCC(=O)NCC3CCCO3)c2c1 (stereo not given) | inconclusive [inhibitor, single point] | –
Cc1cccc(C)c1-n1nnnc1C1(C)CCC(=O)N1Cc1cccs1 (stereo not given) | inconclusive [inhibitor, single point] | –
NC(=O)c1ncn([C@@H]2O[C@H](CNCc3cnc(N4CCOCC4)s3)[C@@H](O)[C@H]2O)n1 | inactive | –
COc1ccc(NC(=O)C(c2ccc(OC)cc2)N(C)C(=O)CC2NC(=O)NC2=O)cc1 (stereo not given) | inactive | –
O=C(Nc1cc(Cl)ccc1O)c1cc2n(n1)C(C(F)(F)F)CC(c1ccc3c(c1)OCO3)N2 (stereo not given) | active: 16.4 µM | –
S=C(NCCC1=CCCCC1)NCc1ccco1 | active: 10.3 µM | –
COc1cc(NC(=O)CN2CCN(CC(=O)Nc3ccccc3OC)CC2)cc(OC)c1 | inconclusive [inhibitor, single point] | –
CC(C(=O)N1CCc2ccccc21)N(C)CC(=O)Nc1ccc(F)cc1 (stereo not given) | inconclusive [inhibitor, single point] | –
Cn1nc(-c2ccc(C(=O)NC3CCCCC3)cc2)c2ccccc2c1=O | inconclusive [inhibitor, single point] | –
COc1ccc(C2=NN(C(=O)CSc3nc(=O)n4cc(C)ccc4n3)C(c3ccc(C)cc3)C2)cc1 (stereo not given) | inconclusive [inhibitor, single point] | –
Cc1ccc(NC(=O)CCS(=O)(=O)c2cccc3nsnc23)c(C)c1 | inactive | –
CCN(Cc1ccccc1)C(=O)CN1C(=O)COc2ccc(S(=O)(=O)N3CCCCCC3)cc21 | active: 23.1 µM | –
Cc1cc(C)cc(OCC(=O)N2Cc3ccccc3CC2C(=O)O)c1 (stereo not given) | inconclusive [inhibitor, partial curve, poor fit] | –
CCC1Oc2ccccc2N(CC(=O)N2CC(C)CC(C)C2)C1=O (stereo not given) | inconclusive [inhibitor, single point] | –
Cc1ccc(S(=O)(=O)NNC(=O)c2cnn(-c3ccccc3)c2C(F)(F)F)cc1 | – | inconclusive: -30.1% [inhibitor]
CCCC(=O)Nc1nc(-c2ccc3c(c2)OCCO3)cs1 | inconclusive [inhibitor, single point] | –
O=c1onc(-c2c(F)cccc2F)n1-c1ccccc1Cl | inactive | –

SMILES | Potency | activity change, negative = growth inhibition
COc1ccc(OC)c(NS(=O)(=O)c2ccc(N3CCCC3=O)cc2)c1 | active: 0.366 µM | –
Nc1ccccc1NC1CCCCC1 | inconclusive [inhibitor, full curve, poor fit] | –
COc1ccc(CC(=O)N/N=C(\C)CC(=O)Nc2ccc(N(C)C)cc2)cc1OC | inconclusive [inhibitor, single point] | –
CC(C)CC1C(=O)N(Cc2cn(CCC3OCCCO3)nn2)CCS(=O)(=O)N1Cc1ccc(-c2cccc(N(C)C)c2)cc1 (stereo not given) | inactive | –
COc1ccc(OCCSc2nnc(-c3ccoc3C)n2C)cc1 | inconclusive [inhibitor, partial curve] | –
CCOc1ccc(NC(=O)c2ccccc2SC)cc1 | inconclusive [inhibitor, single point] | –
O=C(Nc1ccc(NS(=O)(=O)c2ccccc2)cc1)c1cccnc1 | inactive | –
O=C(NC1CC1)c1ccc2c(c1)N(Cc1ccc(Cl)cc1)CCS2 | inconclusive [inhibitor, single point] | –
COc1ccccc1C(=O)COC(=O)C1CCN(S(=O)(=O)c2ccc(C)c(C)c2)CC1 | inconclusive [inhibitor, single point] | –
CCOc1ccc(NC(=O)CSc2nc(-c3ccc(F)cc3)cc(C(F)(F)F)c2C#N)cc1 | inactive | –
O=c1cc(-c2ccccc2)nc2nc(SCc3ccccc3)[nH]n12 | inconclusive [inhibitor, full curve, poor fit] | –
CCCS(=O)(=O)Nc1cc2c(cc1NCc1ccccc1)n(C)c(=O)n2C | inconclusive [inhibitor, single point] | –
COc1ccc(C(=O)NC(C)Cn2nc(C)cc2C)cc1OC1CCN(C(C)=O)CC1 (stereo not given) | inactive | –
Cc1ccccc1-n1c(SCC(=O)c2c(N)n(C)c(=O)n(C)c2=O)nc2sc3c(c2c1=O)CCCC3 | active: 23.1 µM | –
C[C@H](NC(=O)[C@@H]1Cc2ccccc2CN1)C(=O)NC[C@H]1CC[C@H](C(=O)O)CC1 | inconclusive [inhibitor, partial curve, poor fit] | –
C=CCCC1CN(CCCC)S(=O)(=O)c2c(F)cccc2O1 (stereo not given) | inconclusive [inhibitor, partial curve] | –
COc1cc2c(NC3CCN(C)CC3)nc(N3CCCCC3)nc2cc1OCCOCCN1CCCC1 | inconclusive [inhibitor, single point] | –
CC(=O)c1cccc(OC(=O)Oc2cccc(C(C)=O)c2)c1 | inactive | –
C/C(CC(C)C)=N/Nc1ccc([N+](=O)[O-])cc1[N+](=O)[O-] | inconclusive [inhibitor, single point] | –
CC(=O)NC1=NN(C(C)=O)C(C)(c2cccs2)S1 (stereo not given) | inconclusive [inhibitor, partial curve] | –
COc1ccc(C(=O)c2cc([N+](=O)[O-])ccc2N2CCOCC2)cc1 | active: 0.0326 µM | –
Nc1c(-c2ccc(Cl)cc2)cnc2c(-c3ccc(F)cc3)cnn12 | inactive | –
